Measurements from the supplement of paper PMC3334620.
Over roughly 33,000 sequences, “E-score (-0.5 to 0.5)” has its median near -0.01; the highest 2% begin near 0.26. Some of the results follow.

Biological target: Ste12 (UniProt P13574)
Assay: PBM E-score (8-mer binding enrichment) (E-score (-0.5 to 0.5)); higher = stronger / more preferred TF binding; most listed sequences are background and not binding sites
Details: protein concentration: 200 nM; construct: GST-DNA-binding domain
In short: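 PURExpress in vitro transcription/translation supplied GST-tagged yeast transcription factors, either full-length or DNA-binding domain. Applied at about 100-200 nM to universal all-10-mer Agilent arrays double-stranded by primer extension, the bound protein was detected with fluorescent anti-GST. E-scores, modified Wilcoxon-Mann-Whitney statistics, were given by the Universal PBM Analysis Suite to ungapped eight-base words pooled with their reverse complements after masliner normalisation.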

Sequence | PBM E-score
CACTAGAG | 0.104
AGTCGCGG | 0.0863
AACGAATC | 0.134
TACATGCA | -0.0395
ATTGGTAC | 0.00439
ACCGATCA | -0.0161
ACTTTGCA | 0.0794
TACTCAAA | 0.101
CCGTGTTC | 0.152
CCAGCCTA | 0.049
AACCCCGC | 0.181
AATGCTCG | -0.058
CAAAAACA | 0.153
AATTGTTA | 0.25
CAATAAAC | 0.11
ACCCAACT | -0.0251
GATTGAAC | -0.0187
ACGATATC | 0.111
CCCTTCCA | -0.0396
GGTTCGAA | 0.0962
CAGTGAGG | -0.195
CCTCTCAA | -0.146
CCCCGCAA | 0.146
CCACCTTC | -0.022
TCAGGGGA | -0.0742

Sequence | PBM E-score
AAATCTCG | -0.0566
AGAGTTTC | 0.0351
GAACCCTA | -0.14
CAGGAGTA | -0.1
CGGATTTC | 0.0415
TCTGTCCA | 0.0843
AGTCCCAT | -0.0198
AATAGAAA | 0.193
CACAAAGC | 0.0779
ACGGACGT | -0.139
CAATTGCA | 0.0169
GATGAGCA | -0.0712
GTCCGCAC | -0.0666
CAGTGGAG | -0.0837
CGGCTTCA | 0.0461
AGGCGTAG | -0.029
CGCTCGGC | -0.0251
CCCGACCA | 0.0418
ATGTGCGC | -0.0921
CACTTGCG | -0.0542
ACAAGCAG | -0.155
CAAGGTCC | -0.0809
AGCTTTCG | -0.232
GCACAAGA | 0.0501
TCCCGAGA | -0.22

Sequence | PBM E-score
GTCACCAC | -0.121
ACCAACGA | 0.00614
ATTCTCGG | 0.114
CTTTGGAC | 0.0737
CAAGCCTA | -0.151
CACTAGCG | -0.143
CCAGGGTA | -0.0942
GATTACTA | 0.0664
AAACCCCG | 0.28
ACGAGCAT | 0.0482
CCGTACTA | 0.00296
GCGGGCTA | -0.193
AGGTATCA | 0.0378
ATCTATCC | 0.112
CATATCAC | -0.0631
ATTGTAGC | 0.0213
ACGCTTAC | -0.179
ACGAGTCC | -0.0312
GGCCATAC | -0.0307
GGACCAAA | -0.0181
CCCACTCA | 0.0863
CCTAGTTA | 0.015
CATCGTAG | -0.251
TACATTGA | 0.103
TATGAGGA | 0.0228

Sequence | PBM E-score
AGTTCGGC | -0.143
ACTAAGAA | 0.195
AGGAACAA | -0.055
ACGACACG | -0.0797
GTAACCCA | 0.216
AGACTTAG | -0.188
ACGTTACG | 0.00414
TATCCCAA | -0.0184
CTCCAGCA | 0.0297
ATGACCAA | -0.0343
CTCTGAGC | -0.135
AAAGGACC | -0.0559
AACACTCG | 0.0544
GGTCCACA | -0.145
CTGGCCCC | -0.129
CTACTGGC | 0.0701
AATAGCGC | 0.0361
ACAAGGTA | 0.0156
AGTTAAAA | 0.286
GCCCCTAC | 0.0166
GGATAGCC | -0.0943
GTAGTCAA | 0.0297
AAGTGTTC | -0.00788
CGGGAACC | -0.236
AAGTATGA | 0.17

Sequence | PBM E-score
TCGTAAGA | 0.0859
GTGTAACA | 0.319
ATTGCTAC | -0.107
AAGAGAAT | 0.0795
CCGAACAC | 0.0669
CATTAAGC | -0.00233
CTGTCATC | -0.108
TCGACGCA | -0.0298
ACCTTTAA | 0.026
GTATATAC | -0.207
AAACTCCG | 0.172
ATGTCGAC | -0.044
GCCTCGCC | -0.0817
AAATGAGG | -0.0161
AGGGTGTA | -0.103
AGGCTACT | 0.123
GTCGACCA | -0.126
GATTCACC | 0.0165
AGCGCACC | -0.0667
ACGGTCGC | -0.191
GTCATGAA | 0.0771
AATGTGAT | 0.121
CTCGTCCA | 0.0717
AAGATCGA | -0.0121
GGCCCTAC | -0.194

Sequence | PBM E-score
GCGCGCGC | 0.353
GACCACAC | -0.00854
GACCCCTC | -0.119
AGGCAACG | -0.218
GATTGGTA | 0.0851
CCTGAAAG | -0.179
AGCTTTGA | -0.0146
CGGAAGTC | 0.026
ACCCGGCC | -0.335
AAAGAGTA | 0.0122
CTTTGTGA | -0.0351
CCTTCTCA | 0.014
ATACTGAT | 0.117
GCTGAACA | -0.064
CCGTAGTA | -0.0563
GGCTTCAA | -0.0882
ATAAAGTC | 0.167
AGGTTATA | 0.0168
CCTCGAAG | -0.0859
CCTGACCC | -0.0436
CAGCGCTA | -0.0397
TACGGTAA | 0.154
CTAACCAA | 0.186
AGAAGGCT | -0.0898
GGGAGTGA | 0.11

Sequence | PBM E-score
AACCCGAT | 0.137
CAGGGTAC | -0.223
CAGCCGGC | 0.0566
AGTGAGTG | 0.0865
CGATTCCC | 0.0347
AATTCTTG | 0.121
AGTCGCAC | -0.064
CTCGCGGC | -0.046
AGCCGCCC | 0.093
CTATACTC | -0.0377
ACTCTAAC | 0.134
GATGAATC | 0.0548
CGTGTAGC | -0.148
CCGAACAG | -0.0265
ACAAAATA | 0.0836
TCACAGAA | -0.0114
GACAGCCA | -0.0873
CTTGAACC | -0.0679
AATATATT | 0.326
AACGCCTG | 0.00128
CACTTACG | -0.0469
CCATAAAA | 0.256
